Biological target: the molecule itself
Assay: SEC-MALS

B1: HSP27(gT184), HSP27 with O-GlcNAc at Thr184 (semisynthetic) (natural protein)
chain: not shown
modifications: O-GlcNAc at Thr184
For B1, the “stoichiometry N” value was about 47 monomers.

B2: HSP27, unmodified (semisynthetic) (natural protein)
chain: not shown
For B2, the “stoichiometry N” value was about 28 monomers.

From paper doi:10.1101/869909 (bioRxiv, 2019)
